Out of some 410,000 compounds screened, about 6,400 (1.6%) were called active. Inconclusive means that the source gave no clear call. Such entries were picked first, then a sample of the others. Calls come from the whole dose curve; as a rule, active = well fitted inhibition curve with a large enough effect; inconclusive = small, poorly fitted or top-dose-only effect; inactive = no such curve, though single readings can be large or run the other way. Potencies of inconclusive entries are left out as doubtful fits.
molecular target: Glucagon-like peptide 1 receptor (Homo sapiens) (UniProt P43220); assay: qHTS of GLP-1 Receptor Inverse Agonists (Inhibition Mode); details: HEK293 GLP-1R CRE-luciferase, luminescence, 24 h, GLP-1R form is constitutively active; activity change, negative = inhibition: at 38.3 µM (top of the series) unless noted; note: nearly all actives have a fitted effect of over 55% in size
How it was run: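 HEK293 cells stably co-expressing a cAMP-responsive luciferase reporter and constitutively active GLP-1R were seeded, incubated 12 h, then exposed to compounds for 24 h at 37 C. Luminescence was read 12 min after detection reagent; inverse agonists lower signal.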
% is set by controls: 0 for no effect and ±100 for the full control effect; potency is the fitted concentration of half-maximal effect; tags give direction and shape of the fitted curve.

Chain of UniProt P43220 (P43220 whole entry, looked up): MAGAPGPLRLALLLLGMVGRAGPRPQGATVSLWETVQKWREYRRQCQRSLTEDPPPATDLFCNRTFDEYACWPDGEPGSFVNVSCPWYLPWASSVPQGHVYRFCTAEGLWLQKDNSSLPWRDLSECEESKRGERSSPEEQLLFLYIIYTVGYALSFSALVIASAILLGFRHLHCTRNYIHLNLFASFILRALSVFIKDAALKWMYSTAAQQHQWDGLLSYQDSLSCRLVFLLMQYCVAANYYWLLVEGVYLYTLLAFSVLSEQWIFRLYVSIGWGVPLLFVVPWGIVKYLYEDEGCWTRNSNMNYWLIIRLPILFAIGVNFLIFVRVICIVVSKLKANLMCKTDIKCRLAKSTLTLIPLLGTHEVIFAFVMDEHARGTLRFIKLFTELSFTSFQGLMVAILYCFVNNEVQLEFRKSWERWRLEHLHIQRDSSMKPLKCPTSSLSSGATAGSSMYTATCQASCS

| Structure (SMILES) | activity change, negative = inhibition | Potency |
| --- | --- | --- |
| COc1ccc(-c2nc(CS(=O)CC(=O)N3CCN(C)CC3)c(C)o2)cc1OC (stereo not drawn) | inactive: 0.288% |  |
| CCCc1cc(C(=O)OCC(=O)N(CCC)c2c(N)n(Cc3ccccc3)c(=O)[nH]c2=O)sc1C |  | inconclusive [inhibitor, partial curve, poor fit] |
| CCN(CC)CCn1c(=N)n(CC(O)COc2ccccc2)c2ccccc21 (stereo not drawn) |  | inconclusive [inhibitor, partial curve, poor fit] |
| NC(CCc1ccccc1)c1csc(Nc2nccc(C(F)(F)F)n2)n1 (stereo not drawn) | inactive: -15.4% |  |
| CCCCCCCCCCCCCCCCCCNc1ccn(C2OC(COP(=O)(O)OCC3OC(n4cc(F)c(=O)[nH]c4=O)CC3O)C(O)C2O)c(=O)n1 (stereo not drawn) |  | inconclusive [inhibitor, full curve, poor fit] |
| c1ccc2sc(Nc3nc4cc5c(cc4s3)OCO5)nc2c1 |  | inconclusive [inhibitor, single point] |
| CCOC(=O)[C@]12CCCC=C1N(Cc1cccc3ccccc13)C(=O)[C@H](CC(=O)NCC1CCCCC1)C2 | inactive: 32.4% |  |
| CC(C)(C)C(=O)NC1=NN(c2c(Cl)cc(Cl)cc2Cl)C(=O)C1 | inactive: -21% |  |
| COc1cc(/C=N/N2CCN(Cc3ccc(Cl)cc3)CC2)ccc1OC(C)=O |  | inconclusive [inhibitor, single point] |
| CCOC(=O)c1c(CC(C)C)csc1NC(C)=O |  | inconclusive [inhibitor, single point] |
| C=C[C@@H](C)N(Cc1ccc(OC)cc1)S(=O)(=O)N(Cc1ccccc1)[C@H](C=C)C(C)C |  | inconclusive [inhibitor, partial curve, poor fit] |
| O=C(Nc1cccc2ccccc12)c1ccc(Cn2cc(Cl)cn2)cc1 |  | inconclusive [inhibitor, partial curve, poor fit] |
| CC(C)(c1ccccc1)c1ccc(OCCN2CCCC2)cc1 |  | inconclusive [inhibitor, partial curve, poor fit] |
| Cc1cccc(NC(=O)C(=O)NCC(c2cccnc2)N2CCc3ccccc32)c1C (stereo not drawn) |  | inconclusive [inhibitor, single point] |
| O=C(NC1CCN(C(=O)Nc2cccc(Cl)c2)CC1)c1ccco1 | inactive: 8.35% |  |
| CCOc1ccc(-c2nonc2NC(=O)c2oc3ccc(Cl)cc3c2C)cc1 | inactive: -46.6% |  |
| CCCCn1c(N)c(N(CCOC)C(=O)C2CC(=O)N(c3cccc(SC)c3)C2)c(=O)[nH]c1=O (stereo not drawn) | inactive: 0.978% |  |
| O=C1[C@H]2[C@@H](c3ccc(F)cc3)N3C(=O)N(c4ccccc4)C(=O)[C@@]3(Cc3ccc(Cl)cc3)[C@H]2C(=O)N1C1CCCCC1 |  | inconclusive [inhibitor, full curve] |

From PubChem BioAssay AID624417 (National Center for Advancing Translational Sciences (NCATS), 2012)
